Data reported in PMC12820563.
The list shows a part of the results. The list includes weakly bound sequences.

These sequences were tested against T1, MBP-FoxP3dN (UniProt Q99JB6) (assay: PD-seq (MBP pull-down with sequencing)). Conditions: 20 mM Tris-HCl pH 7.5, 100 mM NaCl, 1.5 mM MgCl2, 0.4 uM protein, 0.1 uM dsDNA library, 30 min, room temperature, amylose pull-down; high values mean tight binding; double strand, one strand shown.
T1 sequence: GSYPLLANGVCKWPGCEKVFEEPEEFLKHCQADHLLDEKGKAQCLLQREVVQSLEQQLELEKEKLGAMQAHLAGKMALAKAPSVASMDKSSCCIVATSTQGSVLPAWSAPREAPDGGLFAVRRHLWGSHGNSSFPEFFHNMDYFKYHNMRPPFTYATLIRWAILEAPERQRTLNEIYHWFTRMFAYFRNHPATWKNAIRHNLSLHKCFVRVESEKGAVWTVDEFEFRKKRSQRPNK
“GATGATTGTTCTCCCAGCTGATGAATTATACAGCTCGAGTAAACAAATTTTCCTAATCTTTCTGTTCAAGCGCCATCTAC” was tested, and the binding signal (RPM ratio (pull-down/input)) was 0.504. “GATGATTGTTCTCCCAGCTGATGAATTTTAAGATTCGAGTAAACAAATTTTCCTAATCTTTCTGTTCAAGCGCCATCTAC” gave a binding signal (RPM ratio (pull-down/input)) of 0.275. “GATGATTGTTCTCCCAGCTGATGAATTAAGGTGCTCGAGTAAACAAATTTTCCTAATCTTTCTGTTCAAGCGCCATCTAC” was tested, and the binding signal (RPM ratio (pull-down/input)) was 0.449. “GATGATTGTTCTCCCAGCTGATGAATTCGTGTTATCGAGTAAACAAATTTTCCTAATCTTTCTGTTCAAGCGCCATCTAC” showed a binding signal (RPM ratio (pull-down/input)) of 1.72. Work on “GATGATTGTTCTCCCAGCTGATGAATTGCCTGGTTCGAGTAAACAAATTTTCCTAATCTTTCTGTTCAAGCGCCATCTAC” yielded a binding signal (RPM ratio (pull-down/input)) of 0.696. For “GATGATTGTTCTCCCAGCTGATGAATTGAATAACTCGAGTAAACAAATTTTCCTAATCTTTCTGTTCAAGCGCCATCTAC”, the binding signal (RPM ratio (pull-down/input)) was 0.343. “GATGATTGTTCTCCCAGCTGATGAATTTGAGTCATCGAGTAAACAAATTTTCCTAATCTTTCTGTTCAAGCGCCATCTAC” gave a binding signal (RPM ratio (pull-down/input)) of 0.776. Work on “GATGATTGTTCTCCCAGCTGATGAATTCATAGTCTCGAGTAAACAAATTTTCCTAATCTTTCTGTTCAAGCGCCATCTAC” yielded a binding signal (RPM ratio (pull-down/input)) of 0.646. In the case of “GATGATTGTTCTCCCAGCTGATGAATTCACCCGCTCGAGTAAACAAATTTTCCTAATCTTTCTGTTCAAGCGCCATCTAC”, the binding signal (RPM ratio (pull-down/input)) is reported as 0.263. “GATGATTGTTCTCCCAGCTGATGAATTGAGAAGTTCGAGTAAACAAATTTTCCTAATCTTTCTGTTCAAGCGCCATCTAC” showed a binding signal (RPM ratio (pull-down/input)) of 0.219. With “GATGATTGTTCTCCCAGCTGATGAATTTCTATGTTCGAGTAAACAAATTTTCCTAATCTTTCTGTTCAAGCGCCATCTAC” the binding signal (RPM ratio (pull-down/input)) was 0.457. “GATGATTGTTCTCCCAGCTGATGAATTATTGTTGTCGAGTAAACAAATTTTCCTAATCTTTCTGTTCAAGCGCCATCTAC” gave a binding signal (RPM ratio (pull-down/input)) of 4.3. “GATGATTGTTCTCCCAGCTGATGAATTTCAAACTTCGAGTAAACAAATTTTCCTAATCTTTCTGTTCAAGCGCCATCTAC” showed a binding signal (RPM ratio (pull-down/input)) of 0.276. In the case of “GATGATTGTTCTCCCAGCTGATGAATTAAGAACCTCGAGTAAACAAATTTTCCTAATCTTTCTGTTCAAGCGCCATCTAC”, the binding signal (RPM ratio (pull-down/input)) is reported as 0.244. Sequence “GATGATTGTTCTCCCAGCTGATGAATTGCCGGTCTCGAGTAAACAAATTTTCCTAATCTTTCTGTTCAAGCGCCATCTAC” has a binding signal (RPM ratio (pull-down/input)) of 0.57. In the case of “GATGATTGTTCTCCCAGCTGATGAATTAGGTGTCTCGAGTAAACAAATTTTCCTAATCTTTCTGTTCAAGCGCCATCTAC”, the binding signal (RPM ratio (pull-down/input)) is reported as 1.65. For “GATGATTGTTCTCCCAGCTGATGAATTCTGTTATTCGAGTAAACAAATTTTCCTAATCTTTCTGTTCAAGCGCCATCTAC”, the binding signal (RPM ratio (pull-down/input)) was 6.72. Work on “GATGATTGTTCTCCCAGCTGATGAATTCTGAACCTCGAGTAAACAAATTTTCCTAATCTTTCTGTTCAAGCGCCATCTAC” yielded a binding signal (RPM ratio (pull-down/input)) of 0.328. With “GATGATTGTTCTCCCAGCTGATGAATTCGACCCGTCGAGTAAACAAATTTTCCTAATCTTTCTGTTCAAGCGCCATCTAC” the binding signal (RPM ratio (pull-down/input)) was 0.264. For “GATGATTGTTCTCCCAGCTGATGAATTATTACTCTCGAGTAAACAAATTTTCCTAATCTTTCTGTTCAAGCGCCATCTAC”, the binding signal (RPM ratio (pull-down/input)) was 0.411. With “GATGATTGTTCTCCCAGCTGATGAATTAGACTCCTCGAGTAAACAAATTTTCCTAATCTTTCTGTTCAAGCGCCATCTAC” the binding signal (RPM ratio (pull-down/input)) was 0.422. With “GATGATTGTTCTCCCAGCTGATGAATTCCTAGCATCGAGTAAACAAATTTTCCTAATCTTTCTGTTCAAGCGCCATCTAC” the binding signal (RPM ratio (pull-down/input)) was 0.659. Work on “GATGATTGTTCTCCCAGCTGATGAATTTTTTAATTCGAGTAAACAAATTTTCCTAATCTTTCTGTTCAAGCGCCATCTAC” yielded a binding signal (RPM ratio (pull-down/input)) of 0.279. “GATGATTGTTCTCCCAGCTGATGAATTACGCCATTCGAGTAAACAAATTTTCCTAATCTTTCTGTTCAAGCGCCATCTAC” gave a binding signal (RPM ratio (pull-down/input)) of 5.04. “GATGATTGTTCTCCCAGCTGATGAATTTTCTGCCTCGAGTAAACAAATTTTCCTAATCTTTCTGTTCAAGCGCCATCTAC” was tested, and the binding signal (RPM ratio (pull-down/input)) was 0.359. With “GATGATTGTTCTCCCAGCTGATGAATTGGTCTGTTCGAGTAAACAAATTTTCCTAATCTTTCTGTTCAAGCGCCATCTAC” the binding signal (RPM ratio (pull-down/input)) was 0.463. With “GATGATTGTTCTCCCAGCTGATGAATTATGTTGCTCGAGTAAACAAATTTTCCTAATCTTTCTGTTCAAGCGCCATCTAC” the binding signal (RPM ratio (pull-down/input)) was 4.42. Sequence “GATGATTGTTCTCCCAGCTGATGAATTAACACGGTCGAGTAAACAAATTTTCCTAATCTTTCTGTTCAAGCGCCATCTAC” has a binding signal (RPM ratio (pull-down/input)) of 0.272. Work on “GATGATTGTTCTCCCAGCTGATGAATTGACATCGTCGAGTAAACAAATTTTCCTAATCTTTCTGTTCAAGCGCCATCTAC” yielded a binding signal (RPM ratio (pull-down/input)) of 0.548. Sequence “GATGATTGTTCTCCCAGCTGATGAATTAGTTTTTTCGAGTAAACAAATTTTCCTAATCTTTCTGTTCAAGCGCCATCTAC” has a binding signal (RPM ratio (pull-down/input)) of 3.9. With “GATGATTGTTCTCCCAGCTGATGAATTGTAGTACTCGAGTAAACAAATTTTCCTAATCTTTCTGTTCAAGCGCCATCTAC” the binding signal (RPM ratio (pull-down/input)) was 1.16. In the case of “GATGATTGTTCTCCCAGCTGATGAATTCAGAACCTCGAGTAAACAAATTTTCCTAATCTTTCTGTTCAAGCGCCATCTAC”, the binding signal (RPM ratio (pull-down/input)) is reported as 0.244. With “GATGATTGTTCTCCCAGCTGATGAATTTGGGTGGTCGAGTAAACAAATTTTCCTAATCTTTCTGTTCAAGCGCCATCTAC” the binding signal (RPM ratio (pull-down/input)) was 0.682. In the case of “GATGATTGTTCTCCCAGCTGATGAATTATCAGCCTCGAGTAAACAAATTTTCCTAATCTTTCTGTTCAAGCGCCATCTAC”, the binding signal (RPM ratio (pull-down/input)) is reported as 0.468. “GATGATTGTTCTCCCAGCTGATGAATTTGAGTTCTCGAGTAAACAAATTTTCCTAATCTTTCTGTTCAAGCGCCATCTAC” showed a binding signal (RPM ratio (pull-down/input)) of 1.12. For “GATGATTGTTCTCCCAGCTGATGAATTAACGCTTTCGAGTAAACAAATTTTCCTAATCTTTCTGTTCAAGCGCCATCTAC”, the binding signal (RPM ratio (pull-down/input)) was 1.13. “GATGATTGTTCTCCCAGCTGATGAATTATGACTATCGAGTAAACAAATTTTCCTAATCTTTCTGTTCAAGCGCCATCTAC” gave a binding signal (RPM ratio (pull-down/input)) of 0.751. “GATGATTGTTCTCCCAGCTGATGAATTTGGCGCCTCGAGTAAACAAATTTTCCTAATCTTTCTGTTCAAGCGCCATCTAC” gave a binding signal (RPM ratio (pull-down/input)) of 1.41. Sequence “GATGATTGTTCTCCCAGCTGATGAATTGCTAGACTCGAGTAAACAAATTTTCCTAATCTTTCTGTTCAAGCGCCATCTAC” has a binding signal (RPM ratio (pull-down/input)) of 0.468. For “GATGATTGTTCTCCCAGCTGATGAATTTCCGAGGTCGAGTAAACAAATTTTCCTAATCTTTCTGTTCAAGCGCCATCTAC”, the binding signal (RPM ratio (pull-down/input)) was 0.172.
